# Test results reported in the supplement of paper PMC8728848.
# This is one part of the list.
# Key:
# Assay in all cases: glycan array binding signal (z-score within array); higher = stronger binding
# Settings in all cases: glycan notation: IUPAC condensed, linker removed
# [1] = molecular target: GlcNAc(a1-6)Gal(b1-4)GlcNAc
# Method in brief: (§1)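 The binding signal is a Z-score computed within each array and averaged over linkers. Arrays of the same protein sequence at different concentrations or buffers were also averaged together. Data originate from 3228 arrays in the Consortium for Functional Glycomics database, kept only where the protein sequence was available.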
# [2] = molecular target: GlcNAc(b1-2)Gal(b1-3)GalNAc
# Method in brief: as §1
# [3] = molecular target: GlcNAc(b1-2)Man(a1-3)[GlcNAc(b1-2)Man(a1-6)]Man(b1-4)GlcNAc(b1-4)GlcNAc
# Method in brief: as §1
# [4] = molecular target: GlcNAc(b1-2)Man(a1-3)[GlcNAc(b1-2)Man(a1-6)]Man(b1-4)GlcNAc(b1-4)[Fuc(a1-6)]GlcNAc
# Method in brief: as §1
# [5] = molecular target: GlcNAc(b1-2)Man(a1-3)[GlcNAc(b1-4)][GlcNAc(b1-2)Man(a1-6)]Man(b1-4)GlcNAc(b1-4)GlcNAc
# Method in brief: as §1
# [6] = molecular target: GlcNAc(b1-2)Man(a1-3)[GlcNAc(b1-4)][GlcNAc(b1-2)Man(a1-6)]Man(b1-4)GlcNAc(b1-4)[Fuc(a1-6)]GlcNAc
# Method in brief: as §1
# [7] = molecular target: GlcNAc(b1-2)[GlcNAc(b1-4)]Man(a1-3)[GlcNAc(b1-2)Man(a1-6)]Man(b1-4)GlcNAc(b1-4)GlcNAc
# Method in brief: as §1
# [8] = molecular target: GlcNAc(b1-2)[GlcNAc(b1-4)]Man(a1-3)[GlcNAc(b1-4)][GlcNAc(b1-2)Man(a1-6)]Man(b1-4)GlcNAc(b1-4)GlcNAc
# Method in brief: as §1
# [9] = molecular target: GlcNAc(b1-2)[GlcNAc(b1-4)]Man(a1-3)[GlcNAc(b1-4)][GlcNAc(b1-2)[GlcNAc(b1-6)]Man(a1-6)]Man(b1-4)GlcNAc(b1-4)GlcNAc
# Method in brief: as §1
# [10] = molecular target: GlcNAc(b1-2)[GlcNAc(b1-4)]Man(a1-3)[GlcNAc(b1-4)][GlcNAc(b1-2)[GlcNAc(b1-6)]Man(a1-6)]Man(b1-4)GlcNAc(b1-4)[Fuc(a1-6)]GlcNAc
# Method in brief: as §1
# [11] = molecular target: GlcNAc(b1-2)[GlcNAc(b1-6)]Man(a1-6)[GlcNAc(b1-2)Man(a1-3)]Man(b1-4)GlcNAc(b1-4)GlcNAc
# Method in brief: as §1
# [12] = molecular target: GlcNAc(b1-2)[GlcNAc(b1-6)]Man(a1-6)[GlcNAc(b1-2)Man(a1-3)]Man(b1-4)GlcNAc(b1-4)[Fuc(a1-6)]GlcNAc
# Method in brief: as §1
# [13] = molecular target: GlcNAc(b1-2)[GlcNAc(b1-6)]Man(a1-6)[GlcNAc(b1-4)][GlcNAc(b1-2)Man(a1-3)]Man(b1-4)GlcNAc(b1-4)GlcNAc
# Method in brief: as §1
# GlcNAc(b1-3)Fuc = molecular target: GlcNAc(b1-3)Fuc
# Method in brief: as §1
# GlcNAc(b1-3)Gal = molecular target: GlcNAc(b1-3)Gal
# Method in brief: as §1
# [14] = molecular target: GlcNAc(b1-3)Gal(b1-3)GalNAc
# Method in brief: as §1
# GlcNAc(b1-3)Gal(b1-4)Glc = molecular target: GlcNAc(b1-3)Gal(b1-4)Glc
# Method in brief: as §1
# [15] = molecular target: GlcNAc(b1-3)Gal(b1-4)GlcNAc
# Method in brief: as §1
# [16] = molecular target: GlcNAc(b1-3)Gal(b1-4)GlcNAc(b1-2)Man(a1-3)[GlcNAc(b1-3)Gal(b1-4)GlcNAc(b1-2)Man(a1-6)]Man(b1-4)GlcNAc(b1-4)GlcNAc
# Method in brief: as §1
# [17] = molecular target: GlcNAc(b1-3)Gal(b1-4)GlcNAc(b1-2)Man(a1-3)[GlcNAc(b1-3)Gal(b1-4)GlcNAc(b1-2)Man(a1-6)]Man(b1-4)GlcNAc(b1-4)[Fuc(a1-6)]GlcNAc
# Method in brief: as §1
# [18] = molecular target: GlcNAc(b1-3)Gal(b1-4)GlcNAc(b1-2)[GlcNAc(b1-3)Gal(b1-4)GlcNAc(b1-6)]Man(a1-6)[GlcNAc(b1-3)Gal(b1-4)GlcNAc(b1-2)Man(a1-3)]Man(b1-4)GlcNAc(b1-4)GlcNAc
# Method in brief: as §1
# [19] = molecular target: GlcNAc(b1-3)Gal(b1-4)GlcNAc(b1-3)Gal(b1-4)GlcNAc
# Method in brief: as §1
# [20] = molecular target: GlcNAc(b1-3)Gal(b1-4)GlcNAc(b1-3)Gal(b1-4)GlcNAc(b1-2)Man(a1-3)[GlcNAc(b1-3)Gal(b1-4)GlcNAc(b1-3)Gal(b1-4)GlcNAc(b1-2)Man(a1-6)]Man(b1-4)GlcNAc(b1-4)GlcNAc
# Method in brief: as §1
# [21] = molecular target: GlcNAc(b1-3)Gal(b1-4)GlcNAc(b1-3)Gal(b1-4)GlcNAc(b1-2)Man(a1-3)[GlcNAc(b1-3)Gal(b1-4)GlcNAc(b1-3)Gal(b1-4)GlcNAc(b1-2)Man(a1-6)]Man(b1-4)GlcNAc(b1-4)[Fuc(a1-6)]GlcNAc
# Method in brief: as §1
# [22] = molecular target: GlcNAc(b1-3)Gal(b1-4)GlcNAc(b1-3)Gal(b1-4)GlcNAc(b1-2)[GlcNAc(b1-3)Gal(b1-4)GlcNAc(b1-3)Gal(b1-4)GlcNAc(b1-6)]Man(a1-6)[GlcNAc(b1-3)Gal(b1-4)GlcNAc(b1-3)Gal(b1-4)GlcNAc(b1-2)Man(a1-3)]Man(b1-4)GlcNAc(b1-4)[Fuc(a1-6)]GlcNAc
# Method in brief: as §1
# [23] = molecular target: GlcNAc(b1-3)Gal(b1-4)GlcNAc(b1-3)Gal(b1-4)GlcNAc(b1-3)Gal(b1-4)GlcNAc(b1-2)Man(a1-3)[GlcNAc(b1-3)Gal(b1-4)GlcNAc(b1-3)Gal(b1-4)GlcNAc(b1-3)Gal(b1-4)GlcNAc(b1-2)Man(a1-6)]Man(b1-4)GlcNAc(b1-4)GlcNAc
# Method in brief: as §1
# [24] = molecular target: GlcNAc(b1-3)Gal(b1-4)GlcNAc(b1-3)Gal(b1-4)GlcNAc(b1-3)Gal(b1-4)GlcNAc(b1-2)Man(a1-3)[GlcNAc(b1-3)Gal(b1-4)GlcNAc(b1-3)Gal(b1-4)GlcNAc(b1-3)Gal(b1-4)GlcNAc(b1-2)Man(a1-6)]Man(b1-4)GlcNAc(b1-4)[Fuc(a1-6)]GlcNAc
# Method in brief: as §1
# [25] = molecular target: GlcNAc(b1-3)Gal(b1-4)GlcNAc(b1-3)Gal(b1-4)GlcNAc(b1-3)Gal(b1-4)GlcNAc(b1-2)[GlcNAc(b1-3)Gal(b1-4)GlcNAc(b1-3)Gal(b1-4)GlcNAc(b1-3)Gal(b1-4)GlcNAc(b1-6)]Man(a1-6)[GlcNAc(b1-3)Gal(b1-4)GlcNAc(b1-3)Gal(b1-4)GlcNAc(b1-3)Gal(b1-4)GlcNAc(b1-2)Man(a1-3)]Man(b1-4)GlcNAc(b1-4)[Fuc(a1-6)]GlcNAc
# Method in brief: as §1
# [26] = molecular target: GlcNAc(b1-3)Gal(b1-4)GlcNAc(b1-3)Gal(b1-4)GlcNAc(b1-3)Gal(b1-4)GlcNAc(b1-3)Gal(b1-4)GlcNAc(b1-2)Man(a1-3)[GlcNAc(b1-3)Gal(b1-4)GlcNAc(b1-3)Gal(b1-4)GlcNAc(b1-3)Gal(b1-4)GlcNAc(b1-3)Gal(b1-4)GlcNAc(b1-2)Man(a1-6)]Man(b1-4)GlcNAc(b1-4)GlcNAc
# Method in brief: as §1
# [27] = molecular target: GlcNAc(b1-3)Gal(b1-4)GlcNAc(b1-3)Gal(b1-4)GlcNAc(b1-3)Gal(b1-4)GlcNAc(b1-3)Gal(b1-4)GlcNAc(b1-2)Man(a1-3)[GlcNAc(b1-3)Gal(b1-4)GlcNAc(b1-3)Gal(b1-4)GlcNAc(b1-3)Gal(b1-4)GlcNAc(b1-3)Gal(b1-4)GlcNAc(b1-2)Man(a1-6)]Man(b1-4)GlcNAc(b1-4)[Fuc(a1-6)]GlcNAc
# Method in brief: as §1
# [28] = molecular target: GlcNAc(b1-3)Gal(b1-4)GlcNAc(b1-3)Gal(b1-4)GlcNAc(b1-3)Gal(b1-4)GlcNAc(b1-3)Gal(b1-4)GlcNAc(b1-2)[GlcNAc(b1-3)Gal(b1-4)GlcNAc(b1-3)Gal(b1-4)GlcNAc(b1-3)Gal(b1-4)GlcNAc(b1-3)Gal(b1-4)GlcNAc(b1-6)]Man(a1-6)[GlcNAc(b1-3)Gal(b1-4)GlcNAc(b1-3)Gal(b1-4)GlcNAc(b1-3)Gal(b1-4)GlcNAc(b1-3)Gal(b1-4)GlcNAc(b1-2)Man(a1-3)]Man(b1-4)GlcNAc(b1-4)[Fuc(a1-6)]GlcNAc
# Method in brief: as §1
# [29] = molecular target: GlcNAc(b1-3)Gal(b1-4)GlcNAc(b1-3)Gal(b1-4)GlcNAc(b1-3)GalNAc
# Method in brief: as §1
# [30] = molecular target: GlcNAc(b1-3)Gal(b1-4)GlcNAc(b1-3)GalNAc
# Method in brief: as §1
# [31] = molecular target: GlcNAc(b1-3)Gal(b1-4)GlcNAc(b1-3)[GlcNAc(b1-3)Gal(b1-4)GlcNAc(b1-3)]GalNAc
# Method in brief: as §1
# [32] = molecular target: GlcNAc(b1-3)Gal(b1-4)GlcNAc(b1-6)[Gal(b1-3)]GalNAc
# Method in brief: as §1
# [33] = molecular target: GlcNAc(b1-3)Gal(b1-4)GlcNAc(b1-6)[GlcNAc(b1-3)Gal(b1-3)]GalNAc
# Method in brief: as §1
# [34] = molecular target: GlcNAc(b1-3)Gal(b1-4)GlcNAc(b1-6)[GlcNAc(b1-3)]Gal(b1-4)GlcNAc
# Method in brief: as §1
binder,measurement,setting,value
"MGL2 (Mus musculus), Q8JZN1 (protein) MTMRYENFQNLEREEKNQEMRNGDKKGGMESPKFALIPSQSFLWRILSWTHLLLFSLGLSLLLLVVISVIGSQNSQLRRDLGTLRAILDNTTSKIKAEFQSLDSRADNFEKGISSLKVDVEDHRQELQAGRDLSQKVTSLESTLEKREQALKTDLSDLTDHVQQLETDLKALTCQLANLKNNGSEVACCPLHWTEHEGSCYWFSESEKSWPEADKYCRLENSHLVVVNSLEEQNFLQNRLANVLSWMGLTDQNGPWRWVDGTDFDKGFKNWRPLQPDNWHGHMLGGGEDCAHFSYDGRWNDDVCQRHYHWICETELGKASSAHSPQLIASVP",glycan array binding signal (z-score),[1],-0.051
same,glycan array binding signal (z-score),[2],-0.302
same,glycan array binding signal (z-score),[3],-0.193
same,glycan array binding signal (z-score),[4],0.12
same,glycan array binding signal (z-score),[5],-0.235
same,glycan array binding signal (z-score),[6],-0.149
same,glycan array binding signal (z-score),[7],-0.161
same,glycan array binding signal (z-score),[8],-0.084
same,glycan array binding signal (z-score),[9],-0.124
same,glycan array binding signal (z-score),[10],-0.257
same,glycan array binding signal (z-score),[11],-0.237
same,glycan array binding signal (z-score),[12],-0.101
same,glycan array binding signal (z-score),[13],-0.185
same,glycan array binding signal (z-score),GlcNAc(b1-3)Fuc,-0.15
same,glycan array binding signal (z-score),GlcNAc(b1-3)Gal,-0.118
same,glycan array binding signal (z-score),[14],-0.181
same,glycan array binding signal (z-score),GlcNAc(b1-3)Gal(b1-4)Glc,-0.123
same,glycan array binding signal (z-score),[15],-0.048
same,glycan array binding signal (z-score),[16],-0.089
same,glycan array binding signal (z-score),[17],0.007
same,glycan array binding signal (z-score),[18],-0.106
same,glycan array binding signal (z-score),[19],-0.096
same,glycan array binding signal (z-score),[20],0.234
same,glycan array binding signal (z-score),[21],-0.043
same,glycan array binding signal (z-score),[22],-0.164
same,glycan array binding signal (z-score),[23],-0.168
same,glycan array binding signal (z-score),[24],0.222
same,glycan array binding signal (z-score),[25],-0.137
same,glycan array binding signal (z-score),[26],0.037
same,glycan array binding signal (z-score),[27],-0.044
same,glycan array binding signal (z-score),[28],-0.062
same,glycan array binding signal (z-score),[29],-0.263
same,glycan array binding signal (z-score),[30],-0.124
same,glycan array binding signal (z-score),[31],-0.191
same,glycan array binding signal (z-score),[32],-0.047
same,glycan array binding signal (z-score),[33],-0.188
same,glycan array binding signal (z-score),[34],-0.243
